# Screen size: about 71,000 compounds; about 1,800 (2.5%) were called active. Inconclusive means that the source gave no clear call. Such entries were picked first, then a sample of the others. Calls follow the shape of the dose curve; as a rule, active = well fitted activation curve with a large enough effect in the signal ratio, with a control signal flat (not every such curve was filed as active); inconclusive = small, poorly fitted or top-dose-only effect, or effect the other way, or a change in a side signal; inactive = flat fitted curve, though single readings scatter; the % refers to the signal ratio. Potencies of inconclusive entries are doubtful fits and often do not repeat.
# Assay: Cell signaling CRE-BLA (Fsk stim); as to activity change, negative = inhibition: % of control where 0% means no effect
# Conditions: CHO CRE-bla reporter (cAMP response element driving beta-lactamase), forskolin EC10, beta-lactamase ratio; activity change, negative = inhibition: at 38.2 µM (top of the series) unless noted
# Outline: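 Reporter-gene assay: CHO cells with beta-lactamase behind cAMP responsive elements, co-treated with compound and EC10 NKH 477 for 3 hours at 37 degrees Celsius. Activity came from the 460/530 nm CCF4 emission ratio.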
# Potency is read from the fitted curve at half-maximal effect; tags tell the direction and shape of the fitted curve.
SMILES,"activity change, negative = inhibition",Potency
CC(C)C[C@@H](CC(=O)N[C@@H](CCCN)CC(=O)N[C@@H]1CCCC[C@H]1C(=O)N[C@H](CC(=O)N[C@@H](CCC(=O)O)CC(=O)O)CC(C)C)NC(=O)[C@@H]1CNCC[C@H]1N,inactive: -9.23%,
O=C(CSc1nnc(-c2cccs2)n1-c1ccccc1)NCc1ccco1,inconclusive: -4.71%,
Cc1cc(-c2ccco2)n(-c2ccccc2)n1,inconclusive: 29.9%,
CCOC(=O)c1sc2nc3c(cc2c1N)COC(C)(C)C3,,"inconclusive: 10 µM [rising, partial curve]"
C=CCNc1oc(-c2cccc3ccccc23)nc1C#N,,active: 12.6 µM
O=C(c1ccccc1)c1ccc(OC(=O)N2CCOCC2)cc1,,"inconclusive: 5.01 µM [rising, single point]"
Cc1cc2c(cc1C)C(=O)NC(C)(C)C2,inconclusive: -26.1%,
Cn1c(=O)[nH]c(=O)c2c1nc(CN1CCN(c3ccccc3F)CC1)n2CCCc1ccccc1,inconclusive: 13.5%,
CCOC(=O)c1nnn(-c2nonc2-c2ccccc2)c1C,inconclusive: 14.6%,
c1ccc(-c2nc3nc4ccccc4nc3n2Cc2ccco2)cc1,,"inconclusive: 7.94 µM [rising, partial curve]"
COc1cc2c(cc1OC)CN(C(=O)CSc1nc3[nH]ncc3c(=O)n1-c1ccccc1)CC2,,"inconclusive: 12.6 µM [rising, single point]"
O=C(O)C1C2CCCCC2=C2CCCCC2C1C(=O)O (configuration not stated),inactive: 0.547%,
CCC(C)n1c(-c2cccs2)nc2nc3ccccc3nc21 (configuration not stated),,active: 10 µM
CCN(CC)c1nc(N)nc(NS(=O)(=O)c2ccc(Cl)cc2)n1,inconclusive: -24.2% [at 7.6 µM],
CCCCC(=O)Nc1cccc(NC(=O)CC)c1,inactive: -4.43%,
Cc1ccc2c(c1)C(O)(c1c(C)[nH]c3ccccc13)C(=O)N2 (configuration not stated),inconclusive: -21.1%,
COc1ccc(CCn2c(C)cc(C(=O)CSc3nnc(N)s3)c2C)cc1,inactive: 6.31%,
CCC(Sc1nc(C)cc(=O)[nH]1)C(=O)Nc1ccc(Cl)cn1 (configuration not stated),,"inconclusive: 10 µM [rising, single point]"
CC(=O)Nc1nc2n(n1)C(c1ccccc1)C=C(c1ccccc1)N2 (configuration not stated),inconclusive: -0.844% [fluorescent],
O=c1c(-c2cccs2)nc2cnc(Nc3ccccc3)nc2n1C[C@H]1CCCO1,,"inconclusive: 0.631 µM [rising, full curve, poor fit]"
O=c1cc(-c2ccccc2)[nH]c2[nH]n(-c3ccccc3)c(=O)c12,,"inconclusive: 25.1 µM [falling, single point]"

SMILES,"activity change, negative = inhibition",Potency
COC(=O)c1cn(C(=O)OC)c2ccccc12,,"inconclusive: 10 µM [rising, single point]"
CN(c1ccc(OCc2nnc(-c3ccccc3)o2)cc1)S(=O)(=O)c1ccccc1,,"inconclusive: 5.01 µM [falling, single point]"
O=Cc1ccc(Cl)c(Cl)c1,inconclusive: -11.2%,
CCCC(=O)Nc1ccc2oc(-c3ccncc3)nc2c1,inactive: 20%,
O=C(NC1(C(F)(F)F)C(=O)Nc2c1c(=O)[nH]c(=O)n2Cc1ccco1)C1CC1 (configuration not stated),inconclusive: -3.56%,
C[C@@H](C(=O)NCc1cccc2ccccc12)[C@H]1C[C@]1(C)[C@H](NC(=O)OCc1ccccc1)c1ccccc1,inconclusive: 1.29%,
Clc1ccc(-c2nn3c(-c4ccncc4)nnc3s2)c(Cl)c1,inconclusive: 3.72%,
NC(=O)c1sc2nc3c(c(-c4cccs4)c2c1N)CCCC3,inconclusive: -13.3%,
c1ccc(Nc2ncnc3ccc(-c4ccoc4)cc23)cc1,inconclusive: -25.4%,
CCOC(=O)c1ccc(-n2[nH]c(-c3ccccc3)cc2=O)cc1,,"inconclusive: 12.6 µM [falling, single point]"
Cc1ccc(C(C)C)c(OCC(=O)Nc2ccc(Cl)cn2)c1,,"inconclusive: 10 µM [rising, partial curve]"
CNc1cc(-c2ccccc2C(F)(F)F)ncn1,inactive: -6.67%,
N[C@@H](Cn1cc(F)c(=O)[nH]c1=O)C(=O)O,inconclusive: 3.07%,
CC(C)NC(=O)N1CCC2(CC1)CCN(S(=O)(=O)c1ccccc1)CC2,inactive: 3.36%,
O=C(COC(=O)CCNS(=O)(=O)c1ccc2c(c1)OCCO2)NC1CCCc2ccccc21 (configuration not stated),,"inconclusive: 1 µM [falling, partial curve]"
O=C(O)C1CCCN1S(=O)(=O)c1ccc2ccccc2c1 (configuration not stated),inactive: 3.92%,
OC1CCN(c2ncnc3nc[nH]c23)CC1,inconclusive: 8.57%,
CCOc1ccc(C(=O)Nc2nnn(CC)n2)cc1,inactive: 5.73%,
COc1cccc(CNc2ccc(S(N)(=O)=O)cc2)c1OC,inactive: 9.67%,
Cn1c(=S)c2[nH]c(SCCN3C(=O)c4ccccc4C3=O)nc2n(C)c1=O,inactive: 1.29% [at 7.6 µM],
O=C(c1csnn1)N1CCC2(CC1)CCN(C(c1ccccc1)c1ccccc1)CC2,inactive: -14.7%,

SMILES,"activity change, negative = inhibition",Potency
CCn1c(SCC(=O)Nc2cc(NC(C)=O)ccc2OC)nnc1-c1ccccn1,inconclusive: 5.73%,
c1ccc(-c2nc3ccccc3o2)nc1,,"inconclusive: 10 µM [rising, single point]"
Cc1cc(C)nc(SCc2ccc3nonc3c2)n1,inactive: 17.7%,
CCS(=O)(=O)c1ccc(O)c(N2C(=O)C3C4C=CC(C4)C3C2=O)c1 (configuration not stated),inactive: 3.67%,
CCOC(=O)N1CCC(NC(=O)c2cc3cc4cc(OC)ccc4nc3o2)CC1,,"inconclusive: 25.1 µM [rising, single point]"
N#Cc1cc2c(nc1SCc1cccnc1)CCCCC2,,"inconclusive: 12.6 µM [rising, partial curve]"
O=C(Cc1cn2ccsc2n1)Nc1nc2c(s1)CN(Cc1ccccc1)CC2,inactive: 9.98%,
CCOc1ccccc1NC(=O)N1CCC(n2nnc3cc(C)ccc32)CC1,inactive: 2.19%,
O=C(CC1(O)C(=O)N(C/C=C/c2ccccc2)c2ccccc21)c1ccccn1 (configuration not stated),inconclusive: 28.3%,
O=C(Cc1c(C(=O)O)[nH]c2ccccc12)NCCN1CCN(c2ccccc2F)CC1,inactive: 0%,
CC(C)c1cc(C(=O)Nc2sc3c(c2C#N)CCC3)no1,,"inconclusive: 10 µM [rising, partial curve]"
CCCn1nc(NS(=O)(=O)c2ccccc2)c2cc3ccccc3nc21,,"inconclusive: 12.6 µM [rising, partial curve]"
O=S(=O)(c1cccc2cccnc12)N1CCN(Cc2ccc3c(c2)OCO3)CC1,inactive: 4.81%,
c1ccc(C(Cc2nc(-c3ccccn3)no2)c2ccccc2)cc1,inconclusive: -10.7%,
C=CCn1c(=O)c(C(=O)NCCc2ccccc2)c(O)c2ccccc21,,"inconclusive: 5.01 µM [rising, partial curve]"
COc1cccc(-n2c(SCC(=O)Nc3cc(C)on3)nc3c([nH]c4ccccc43)c2=O)c1,,active: 3.98 µM
COc1cccc(Cn2c(=O)c(-c3ccc(F)cc3)nc3cnc(OC)nc32)c1,inconclusive: 16.8%,
COc1ccc(Br)cc1C(=O)Nc1ccc(N2CCN(S(C)(=O)=O)CC2)cc1,,"inconclusive: 15.8 µM [rising, partial curve]"
CN(C)CC(C)(C)NS(=O)(=O)c1ccc(Cl)cc1,inconclusive: -4.08%,
COc1ccc(C2CC(=O)Nc3ccccc3S2(=O)=O)cc1OC (configuration not stated),inconclusive: 25.3%,
Cc1cccc(NC(=O)c2sc3nc(-c4ccccc4)cn3c2C)n1,,"inconclusive: 1.58 µM [rising, partial curve]"

SMILES,"activity change, negative = inhibition",Potency
CCCCn1c(SCC(=O)Nc2cc(C)on2)nnc1-c1cccnc1,inconclusive: 1.28%,
O=C(NCCCO)c1ccc2[nH]c3ccccc3c2c1,inactive: 6.31%,
Cc1cccc(-n2ncc3c(NCc4ccccc4)ncnc32)c1,,"inconclusive: 10 µM [rising, partial curve]"
O=C(CCc1ccccc1)NCc1ccccn1,inconclusive: 17.5% [at 7.6 µM],
c1nc(N2CCC3(CC2)OCCO3)c2[nH]cnc2n1,inconclusive: -4.28%,
CCOc1ccc(Nc2cc(C)nc(-n3nc(C)cc3C)n2)cc1,,active: 12.6 µM
Cc1ccccc1-n1c(=O)cc(N2CC(C)OC(C)C2)[nH]c1=O (configuration not stated),inconclusive: 16.6%,
COCCn1c(=N)c(C(=O)NCCc2ccc(OC)cc2)cc2c(=O)n3cccc(C)c3nc21,inconclusive: 16%,
CCOC(=O)C1CCN(C(c2cccs2)c2sc3nc(C)nn3c2O)CC1 (configuration not stated),,active: 6.31 µM
CCOCCCNC(=O)C(NC(=O)CC1NC(=O)NC1=O)c1ccc(Cl)cc1 (configuration not stated),inactive: 2.25%,
COCCn1c(=NC(=O)c2ccc3c(c2)OCO3)c(C#N)cc2c(=O)n3cccc(C)c3nc21,,"inconclusive: 2 µM [rising, full curve]"
O=C(Nc1ccc(O)cc1)C1CC=CCC1 (configuration not stated),inconclusive: -21.8%,
Cc1ccccc1N1CCN(c2ncnc3c2cnn3Cc2ccc(Cl)cc2)CC1,inactive: 3.43%,
Cc1nn(Cc2ccc(F)cc2)c(C)c1NC(=O)c1cc(-c2ccc3c(c2)OCO3)on1,inconclusive: 23.5%,
Cn1nnnc1SCC(=O)Nc1ccccc1N1CCOCC1,,"inconclusive: 2.51 µM [falling, single point]"
O=C(Nc1ccc(F)c(Cl)c1)c1ccc2c(=O)n3c(nc2c1)CCCCC3,,"inconclusive: 12.6 µM [rising, partial curve]"
COc1ccc(C(=O)N2CCC3(CCCN(c4cccc(-c5ccccc5)c4)C3)CC2)cc1,inactive: -3.1%,
CC1(C)CC(OC(=O)c2ccco2)CC(C)(C)N1O,inconclusive: -3.44%,
CC(C)NC(=O)C(C)n1cccc1C(=O)c1ccccc1 (configuration not stated),inconclusive: 0.971%,

# Reference: PubChem BioAssay AID662 (National Center for Advancing Translational Sciences (NCATS), 2007)
